{
  "source": "PubChem BioAssay AID248",
  "about": "(DTP/NCI, 2004)",
  "tested_on": "L1210 leukemia ip in BDF1 mice, survival T/C",
  "assay": "NCI In Vivo Anticancer Drug Screen. Data for tumor model L1210 Leukemia (intraperitoneal) in B6D2F1 (BDF1) mice",
  "conditions": "schedule: Q01DX009 (ip), vehicle: saline, higher = longer survival",
  "note": "Toxic doses and inconclusive results are not listed. Certain results were filed several times, with different values. The list is limited to them. The source may hold further records. Results that share an entry differ, and nothing given here explains why; they may come from other doses, times, organisms or constructs than stated.",
  "data": [
    {"smiles": "Nc1ncn(C2OC(CO)C(O)C2O)c(=O)n1", "note": "(configuration not stated)", "values": [
      {"measurement": "T/C", "setting": "endpoint: median survival time, dose: 0.39 mg/kg/injection", "result": "122 % of control, 150 % of control, 153 % of control"}
    ]},
    {"smiles": "CC1CN1P(=O)(N1CC1C)N1CC1C", "note": "(configuration not stated)", "values": [
      {"measurement": "T/C", "setting": "endpoint: mean survival time, dose: 44.0 mg/kg/injection", "result": "117 % of control and 162 % of control"}
    ]}
  ]
}
